Data reported in PubChem BioAssay AID1347417 (National Center for Advancing Translational Sciences (NCATS), 2020).
The whole screen tested about 120,000 compounds, of which about 5,300 (4.4%) were called active. The inconclusive results got no clear call from the source; some entries with a clear call stand among them for comparison. Calls follow the shape of the dose curve; as a rule, active = well fitted inhibition curve with a large enough effect; inconclusive = small, poorly fitted or top-dose-only effect; inactive = no such curve, though single readings can be large or run the other way. Potencies of inconclusive entries are doubtful fits and often do not repeat.

experiment: qHTS Primary assay for Inhibitors of Plasmodium falciparum Dd2 growth in vitro; also: nearly all actives have a fitted effect of over 65% in size;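 as to activity, negative = inhibition: plate controls were DMSO vehicle for no effect and reference drug for full effect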; details: P. falciparum Dd2 growth, SYBR Green, 72 h; activity, negative = inhibition: at 28.9 µM (top of the series) unless noted; series mostly up to 28.9 µM
Summary of the method: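 Infected erythrocytes (Dd2, 0.3% parasitemia, 2.5% hematocrit final) are added to compound in RPMI-1640/Albumax II medium, grown 72 h at 37C in low oxygen, then lysed with saponin/Triton-X containing SYBR Green and read by fluorescence.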
Potency is read from the fitted curve at half-maximal effect; tags tell the direction and shape of the fitted curve.

Compound	Potency	activity, negative = inhibition	outcome
O=C(NCc1cccs1)c1ccc2c(c1)CC(=O)N2Cc1ccc(F)cc1	inconclusive: 2.82 µM [inhibitor, single point]	–	–
CCCN(CC1CCOC1)C(=O)c1ccc(C(F)(F)F)cc1 (configuration not stated)	–	inactive: 11.8% [at 5.79 µM]	–
CCS(=O)(=O)N1CCCC(c2nc(-c3ccccc3)no2)CCNC(=O)CC1 (configuration not stated)	–	inactive: -23.3%	–
CCOc1ccccc1NC(=O)c1nc2nc(C)cc(C(F)F)n2n1	inconclusive: 8.91 µM [inhibitor, single point]	–	–
Cc1nn(-c2ccc(C(F)(F)F)cc2)c(C)c1[C@@H]1C=C[C@@H](NC(=O)Nc2cccc(C#N)c2)C1	inconclusive: 11.2 µM [inhibitor, single point]	–	–
COc1ccc(O)c(CN2CCCC(Nc3ccc(F)cc3)C2)c1 (configuration not stated)	active: 2.82 µM	–	–
O=C1OC[C@@H]2CCN(Cc3ccc(F)cc3)Cc3ccc(F)cc3N12	inconclusive: 31.6 µM [inhibitor, single point]	–	–
COc1cc(C2C(C(=O)Nc3ccc(C)cc3C)=C(C)Nc3nc4ccccc4n32)cc(OC)c1OC (configuration not stated)	inconclusive: 4.47 µM [inhibitor, partial curve, poor fit]	–	–
Cc1ccc(CNC[C@H]2O[C@H](Cc3cc(CN(C)Cc4ccccc4)on3)CC[C@@H]2O)cc1	inconclusive: 3.98 µM [inhibitor, full curve, poor fit]	–	–
CC1(C)N=C(c2ccccc2)C(=O)N1CC(=O)N1CCN(c2ccccc2F)CC1	inconclusive: 2.82 µM [inhibitor, partial curve, poor fit]	–	–
Cc1cccc(NC(=O)CS(=O)(=O)c2nc(-c3ccccc3)cn2-c2cccc(Cl)c2)c1C	inconclusive: 17.8 µM [inhibitor, single point]	–	–
COc1ccc(CN2CCC(O)(c3csc(CN4CCc5ccccc5C4)n3)CC2)cc1	inconclusive: 0.316 µM [inhibitor, full curve, poor fit]	–	–
CCOC(=O)c1cc(-c2ccc(C)cc2)n(CCC(=O)Nc2ccc(C(C)C)cc2)c1C	active: 8.91 µM	–	–
CC(=O)N(C)Cc1ccc(-c2ccccc2)cc1	inconclusive: 31.6 µM [inhibitor, single point]	–	–
Cc1cc(F)ccc1NS(=O)(=O)c1c(C)nc2scc(C)n2c1=O	inconclusive: 11.2 µM [inhibitor, single point]	–	–
COc1ccc(-c2noc([C@@H]3CCCN3C(=O)c3cc(F)ccc3F)n2)cc1OC	inconclusive: 20 µM [inhibitor, single point]	–	–
CC(=O)Nc1ccc(CN2CCn3c(nn(-c4ccc(Cl)cc4)c3=O)C2)cc1	inconclusive: 0.398 µM [inhibitor, full curve, poor fit]	–	–
COc1ccc(Cn2c(SCc3ccc(C(=O)NCc4cccs4)cc3)nc3cccnc32)cc1	inconclusive: 10 µM [inhibitor, single point]	–	–
Cc1ccc2c(=O)cc(C(=O)N(Cc3ccc(N(C)C)cc3)C3CCS(=O)(=O)C3)oc2c1 (configuration not stated)	inconclusive: 10 µM [inhibitor, partial curve, poor fit]	–	–
O=C1Nc2ccccc2CC12CCN2Cc1ccccc1C(F)(F)F (configuration not stated)	inconclusive: 12.6 µM [inhibitor, single point]	–	–
Cc1nccn1C(C)CN1C(=O)NC2(CCNCC2)C1=O (configuration not stated)	–	inactive: -2.1%	–

Compound	Potency	activity, negative = inhibition	outcome
COc1ccc(C)cc1NC(=O)C1CCCN(S(=O)(=O)c2ccc3[nH]c(=O)ccc3c2)C1 (configuration not stated)	inconclusive: 10 µM [inhibitor, single point]	–	–
CNC(=O)c1cc2cc(-c3c(C)noc3C)nc(-c3cnn(C)c3)c2o1	inconclusive: 20 µM [inhibitor, partial curve, poor fit]	–	–
CCOc1cc2[nH]c(=O)n(CCCC(=O)N3CCN(c4ccc(OC)cc4)CC3)c(=O)c2cc1OCC	inconclusive: 12.6 µM [inhibitor, single point]	–	–
CCC(=O)N(C1CCOCC1)C1CCN(S(=O)(=O)c2ccccc2Cl)CC1	inconclusive: 8.91 µM [inhibitor, partial curve, poor fit]	–	–
COc1cccc(CN2CCCCCCN(C)C(=O)[C@@H]3CCC[C@@H]32)n1	active: 2.51 µM	–	–
CNC(=O)C1CCC(Cn2c(=O)c3sccc3n(CC(=O)Nc3ccc(C)c(F)c3)c2=O)CC1 (configuration not stated)	inconclusive: 17.8 µM [inhibitor, single point]	–	–
COCc1cc(CNC(=O)c2cn(C3CCC(N)CC3)nn2)[nH]n1 (configuration not stated)	–	inactive: 8.3%	–
Cc1ccsc1CN1CCCC(c2nc(-c3cccnc3)no2)CCNC(=O)CC1 (configuration not stated)	inconclusive: 5.62 µM [inhibitor, partial curve, poor fit]	–	–
O=C(c1ccc(CSc2nc3ccncc3n2Cc2cccc(F)c2)cc1)N1CCCCC1	inconclusive: 8.91 µM [inhibitor, single point]	–	–
Cc1cccc(CNC(=O)Cn2ccc3cc(S(=O)(=O)N4CCCC4)ccc32)c1	–	–	inactive
O=C1Nc2ccccc2CN(Cc2ccccc2)C12CCNC2 (configuration not stated)	inconclusive: 4.47 µM [inhibitor, partial curve]	–	–
CCOc1ccc(CCNC(=O)c2cn(CC)c3ccc(S(=O)(=O)N4CCCCCC4)cc3c2=O)cc1OCC	inconclusive: 17.8 µM [inhibitor, single point]	–	–
Cc1ccc(F)c(NC(=O)Nc2ccc3snnc3c2)c1	inconclusive: 17.8 µM [inhibitor, single point]	–	–
COc1ccc(CCC(=O)N2[C@H]3CC[C@@H]2c2cnc(-c4ccc(F)cc4)nc2C3)cc1	inconclusive: 7.08 µM [inhibitor, partial curve]	–	–
O=C(c1cccc(Cl)c1)N1CCC2(CC1)CC(=O)N(c1ccccc1)c1ccccc1O2	inconclusive: 20 µM [inhibitor, single point]	–	–
CCCCN1CC(c2nc3ccccc3n2CCCCOc2ccc(C)c(C)c2)CC1=O (configuration not stated)	inconclusive: 17.8 µM [inhibitor, single point]	–	–
CN(C)CCNC(=O)c1nc2nc(-c3ccccc3)c(-c3ccccc3F)cc2n1C	inconclusive: 12.6 µM [inhibitor, partial curve, poor fit]	–	–
Cc1cc(OCC(=O)N2CCN(CCc3ccncc3)CC2)cc(C)c1Cl	inconclusive: 17.8 µM [inhibitor, single point]	–	–
COc1cccc(CN2CCC3(CC2)NCCc2c3[nH]c3ccccc23)c1	inconclusive: 3.55 µM [inhibitor, partial curve, poor fit]	–	–
Cc1cccc(OCCc2noc(C3CCN(C(=O)c4n[nH]c(=O)c5ccccc45)C3)n2)c1 (configuration not stated)	inconclusive: 0.224 µM [inhibitor, full curve]	–	–
Cc1ccc(C)c(C(=O)N2CCN(c3cc(-c4ccccc4)[nH]n3)CC2)c1	inconclusive: 3.98 µM [inhibitor, single point]	–	–

Compound	Potency	activity, negative = inhibition	outcome
CCc1ccccc1S(=O)(=O)N1CCN(C2CCN(CCC(C)C)C2=O)CC1 (configuration not stated)	active: 10 µM	–	–
Cc1ccc(-c2nc3nc(C)cc(Nc4ccccc4O)n3n2)cc1	inconclusive: 3.55 µM [inhibitor, single point]	–	–
Cc1csc(Nc2ccc3c(n2)CN(Cc2ccc(F)cc2)C(=O)CO3)n1	inconclusive: 2 µM [inhibitor, partial curve, poor fit]	–	–
COC(=O)c1scc(-c2ccc(C)cc2)c1S(=O)(=O)N1CCN(c2ccc(OC)cc2)CC1	inconclusive: 15.8 µM [inhibitor, single point]	–	–
CCOC(=O)c1ccccc1NC(=O)N1CCC(N2CCN(Cc3ccccc3)C(=O)C2=O)CC1	inconclusive: 10 µM [inhibitor, partial curve, poor fit]	–	–
CCN1CCC(CCNC(=O)CCC[C@@H]2[C@H]3CCCN4CCC[C@@H](CN2C(C)=O)[C@@H]34)CC1	–	inactive: -1.45%	–
Cc1ccc(C(=O)NC2CCCN(c3cc(-c4ccc(F)cc4)[nH]n3)C2)cc1 (configuration not stated)	–	inactive: -0.935%	–
COc1ccccc1CN1CC[C@H](c2nc3ccc(C(F)(F)F)cc3[nH]2)C1	active: 8.91 µM	–	–
O=C(c1cn(CCCc2ccccc2)nn1)N1CCCC(c2ccccc2)CC1 (configuration not stated)	–	inactive: -10.2%	–
CCC(C)OC(=O)/C(C#N)=C\c1ccc(-c2ccccc2Cl)o1 (configuration not stated)	–	inactive: 79.2%	–
Cc1nc(-c2ccc(N(C)C)cc2)cc([C@H]2CN3CC[C@H]2C[C@@H]3CNC(=O)N2CCOCC2)n1	inconclusive: 17.8 µM [inhibitor, single point]	–	–
CCOC(=O)c1ccc(N2C(=O)c3n[nH]c(-c4ccco4)c3C2c2ccc(O)c(OC)c2)cc1 (configuration not stated)	inconclusive: 3.98 µM [inhibitor, single point]	–	–
Cc1c(C(=O)N2CCC3(CC2)Nc2ccccc2NC3=O)cnc2ccnn12	–	inactive: -22.1%	–
CC1(c2ccccc2)N(Cc2ccc(O)cc2)C(=O)OC12CCN(Cc1c[nH]c3ccccc13)CC2 (configuration not stated)	inconclusive: 0.316 µM [inhibitor, full curve, poor fit]	–	–
O=C(c1n[nH]c2ccccc12)N1CC(Oc2ccccc2-c2nc(-c3ccccc3)no2)C1	inconclusive: 1.78 µM [inhibitor, partial curve, poor fit]	–	–
COc1cc(OC)c(NS(=O)(=O)c2cc(-c3cnc(C)o3)ccc2OC)cc1Cl	inconclusive: 10 µM [inhibitor, single point]	–	–
O=C(c1noc(-c2ccc(F)cc2)n1)N1CCN(c2ccccc2F)CC1	–	inactive: 10.8%	–
O=C([C@@H]1C[C@H](Oc2ccccc2)CN1C(=O)NC1CCCCC1)N1CCOCC1	–	inactive: 23.8%	–
CCc1ccc(CNC(=O)c2cc(-c3ccc(Cl)s3)nc3ccccc23)cc1	–	inactive: 4.1%	–
COc1cccc(NC(=O)c2cc3c(N4CCCC4)nc(C)cn3n2)c1	–	inactive: -5.06%	–
